# Target: isolated recombinant JAK1 kinase domain (Homo sapiens (Human), UniProt P23458)
# Settings: read-out: JAK1 Ki; isolated recombinant JAK1 kinase domain, 25 μM ATP
row,Compound,Ki [nM]
1,"O=C(c1ccc(Nc2nc3c(N4CCC(O)(c5ccc(Cl)cc5)CC4)cccn3n2)cc1)N1CCCNCC1 [Example 1-204, [4-[[8-[4-(4-chlorophenyl)-4-hydroxy-1-piperidyl]-[1,2,4]triazolo[1,5-a]pyridin-2-yl]amino]phenyl]-(1,4-diazepan-1-yl)methanone]",4.08
2,"O=C(c1ccc(Nc2nc3c(N4CCC(O)(c5ccc(Cl)cc5)CC4)cccn3n2)cc1)N1CCC2(CNC2)C1 [Example 1-205, [4-[[8-[4-(4-chlorophenyl)-4-hydroxy-1-piperidyl]-[1,2,4]triazolo[1,5-a]pyridin-2-yl]amino]phenyl]-(2,6-diazaspiro[3.4]octan-6-yl)methanone]",1.89
3,"CNC1CCN(C(=O)c2ccc(Nc3nc4c(N5CCC(O)(c6ccc(Cl)cc6)CC5)cccn4n3)cc2)C1 (centres unmarked) [Example 1-206, [4-[[8-[4-(4-chlorophenyl)-4-hydroxy-1-piperidyl]-[1,2,4]triazolo[1,5-a]pyridin-2-yl]amino]phenyl]-[3-(methylamino)pyrrolidin-1-yl]methanone]",2.34
4,"O=C(c1ccc(Nc2nc3c(N4CCC(O)(c5ccc(Cl)cc5)CC4)cccn3n2)cc1)N1CCC2(CCNC2)C1 (centres unmarked) [Example 1-207, [4-[[8-[4-(4-chlorophenyl)-4-hydroxy-1-piperidyl]-[1,2,4]triazolo[1,5-a]pyridin-2-yl]amino]phenyl]-(2,7-diazaspiro[4.4]nonan-2-yl)methanone]",1.97
5,"O=C(c1ccc(Nc2nc3c(N4CCC(O)(c5ccc(Cl)cc5)CC4)cccn3n2)cc1)N1CCCC12CCNC2 (centres unmarked) [Example 1-209, [4-[[8-[4-(4-chlorophenyl)-4-hydroxy-1-piperidyl]-[1,2,4]triazolo[1,5-a]pyridin-2-yl]amino]phenyl]-(1,7-diazaspiro[4.4]nonan-1-yl)methanone]",5.63
6,"O=C(c1ccc(Nc2nc3c(N4CCC(O)(c5ccc(Cl)cc5)CC4)cccn3n2)cc1)N1CC2(CCCNC2)C1 [Example 1-210, [4-[[8-[4-(4-chlorophenyl)-4-hydroxy-1-piperidyl]-[1,2,4]triazolo[1,5-a]pyridin-2-yl]amino]phenyl]-(2,8-diazaspiro[3.5]nonan-2-yl)methanone]",0.91
7,"O=C(c1ccc(Nc2nc3c(N4CCC(O)(c5ccc(Cl)cc5)CC4)cccn3n2)cc1)N1CCC2(CCCCN2)C1 (centres unmarked) [Example 1-211, [4-[[8-[4-(4-chlorophenyl)-4-hydroxy-1-piperidyl]-[1,2,4]triazolo[1,5-a]pyridin-2-yl]amino]phenyl]-(2,6-diazaspiro[4.5]decan-2-yl)methanone]",2.19
8,"O=C(c1ccc(Nc2nc3c(N4CCC(O)(c5ccc(Cl)cc5)CC4)cccn3n2)cc1)N1CCC2(CCCNC2)C1 (centres unmarked) [Example 1-212, [4-[[8-[4-(4-chlorophenyl)-4-hydroxy-1-piperidyl]-[1,2,4]triazolo[1,5-a]pyridin-2-yl]amino]phenyl]-(2,9-diazaspiro[4.5]decan-2-yl)methanone]",1.88
9,"O=C(c1ccc(Nc2nc3c(N4CCC(O)(c5ccc(Cl)cc5)CC4)cccn3n2)cc1)N1CCC2(CCNC2)CC1 [Example 1-213, [4-[[8-[4-(4-chlorophenyl)-4-hydroxy-1-piperidyl]-[1,2,4]triazolo[1,5-a]pyridin-2-yl]amino]phenyl]-(2,8-diazaspiro[4.5]decan-8-yl)methanone]",2.8
10,"O=C(c1ccc(Nc2nc3c(N4CCC(O)(c5ccc(Cl)cc5)CC4)cccn3n2)cc1)N1CCC2(CCNCC2)C1 [Example 1-214, [4-[[8-[4-(4-chlorophenyl)-4-hydroxy-1-piperidyl]-[1,2,4]triazolo[1,5-a]pyridin-2-yl]amino]phenyl]-(2,8-diazaspiro[4.5]decan-2-yl)methanone]",2.53
11,"O=C(c1ccc(Nc2nc3c(N4CCC(O)(c5ccc(Cl)cc5)CC4)cccn3n2)cc1)N1CCCC2(CCCNC2)C1 (centres unmarked) [Example 1-215, [4-[[8-[4-(4-chlorophenyl)-4-hydroxy-1-piperidyl]-[1,2,4]triazolo[1,5-a]pyridin-2-yl]amino]phenyl]-(2,8-diazaspiro[5.5]undecan-2-yl)methanone]",2.28
